# The RNAGym collection of RNA variant scans (doi:10.1073/pnas.2313332121)
# Variants at the floor of the assay are shown more often than the library holds them.
# B1: TPR 5TU (parent)
# chain: GGAUCUUCUCGAUCUAACAAAAAAGACAAAUCUGCCACAAAGCUUGAGAGCAUCUUCGGAUGCAGAGGCGGCAGCCUUCGGUGGCGCGAUAGCGCCAACGUUCUCAACUAUGACACGCAAAACGCGUGCUCCGUUGAAUGGAGUUUAUCAUG
# Variants of: B1
# Experiment: polymerase ribozyme fitness, log enrichment relative to wild type (log ratio); higher = more active; in vitro selection for triplet polymerase activity
# How it was run: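 A single round of triplicate in vitro selection, including frozen incubation at −7 °C, was applied to PCR-built, transcribed mutant libraries of each subunit of a heterodimeric triplet polymerase ribozyme. Illumina sequencing of input and output libraries retained genotypes with ≥10 input reads and ≥1 read per output. Fitness is the base-2 logarithm of genotype enrichment divided by wild-type enrichment, from inverse-variance-weighted replicate averages.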
row,Variant,polymerase ribozyme fitness (log ratio)
1,C35G A91C C118G C123A,≤ -4.2
2,U33A C116U C125G G140U,≤ -4.2
3,C36A G88U A150G,≤ -4.2
4,C35G G83A A89C A142U,≤ -4.2
5,C35U G50C C85U A107U C123U,≤ -4.2
6,C36A C51U U78C,≤ -4.2
7,G34A G117U A137C A142U,≤ -4.2
8,C35U C57A G133C G141C,≤ -4.2
9,C35G G59A C85A A106G G126U,≤ -4.2
10,G34U C35G C76A G86C C103G A121G G126C,≤ -4.2
11,U33G C87A,≤ -4.2
12,C35U A52C C123U,-1.31
13,C36A G62C C63U,≤ -4.2
14,C35U C69U A91G C118A,-3.8
15,G34C U56A G74A G88A U90A A137G,≤ -4.2
16,U33A C57U C79G A89U A97G,≤ -4.2
17,C36A U78C G80U C149U,≤ -4.2
18,C36G U82A G84A U127C C129U G133C,≤ -4.2
19,C32G U90G U134G G141A,≤ -4.2
20,G34C C75U U77C,≤ -4.2
21,U33G G62U C69U C103A G126C,≤ -4.2
22,U33G A39C A120C,≤ -4.2
23,C35U C85G A137U,≤ -4.2
24,G34A U56A G58U A73U C76U U78G G88A C95U C105U A122U C132G,≤ -4.2

row,Variant,polymerase ribozyme fitness (log ratio)
1,U33G G59U G71U A106C A107G A113C U134G U146G,≤ -4.2
2,C36A A49U C51U U90G G94A C125U G126C,≤ -4.2
3,C35A A37G U56A U61A,-3.7
4,U33G C54U C75U A89U C99A A115G,≤ -4.2
5,U33G G34U,≤ -4.2
6,C35A U82G C85A U109G G141A G143A A150C U151A,≤ -4.2
7,C35A A41G U56A G81A A107U,≤ -4.2
8,U33C C57U C105G A107G U145G,≤ -4.2
9,G34A U45A G94A U109A,≤ -4.2
10,U33A C85U,-3.79
11,C35G C51U A107C G128U,≤ -4.2
12,C36G G65A G83A A98C,≤ -4.2
13,C32U C87G C93U U151G,≤ -4.2
14,C32U U144A,-2.41
15,G34A C116A G117A,≤ -4.2
16,C36U A39C U55A A73U C95A C96A G126C U130G,≤ -4.2
17,C32U A119C C149G,≤ -4.2
18,U33G U53A C95A A122C G133U U139A A150U,≤ -4.2
19,C32U U44A G86U A91C A110G A113C,≤ -4.2
20,U33C A39U G62A G86A A107U,≤ -4.2
21,C36A G58A C72G G92U A115C A147G,≤ -4.2
22,C35U A52C U55A C93U C149A,≤ -4.2
23,C35U G50C G59U C87U U151G,≤ -4.2
24,C35A U45A U55A C85G G92U C96U A120U C125G A137C,≤ -4.2

row,Variant,polymerase ribozyme fitness (log ratio)
1,C32U C36U G68A G83U,≤ -4.2
2,U33A A49C C76U G80U C149G,≤ -4.2
3,C35G G48U G70A G92C C96G,≤ -4.2
4,C32U C51A A52U C96G G136U,≤ -4.2
5,C35G C96U U145C,≤ -4.2
6,C35U U55A A91C,≤ -4.2
7,C32G U55G C87G A138U A150U,≤ -4.2
8,C35U C38A U61A A66U C69G C76A U135A U148G,≤ -4.2
9,C35U A49C U53G C75G G92A A119U A120G G133U A138C,≤ -4.2
10,C35U C43G C93A C103G,≤ -4.2
11,U33C C85A,-3.61
12,U33G A52U C96U,≤ -4.2
13,C35U A73U G88U C108G,≤ -4.2
14,U33G G48C U53A C93U C149U,≤ -4.2
15,C35A C43U A49U A64G C76U C96A U101G C149U,≤ -4.2
16,C35U G86A A91C G126U G141U U145C,≤ -4.2
17,C35U G124U,-1.25
18,C36A C57A C79G U82G,≤ -4.2
19,U33A U55A C105U,≤ -4.2
20,C35U G50C,-3.9
21,G34U G48A G94A G128C U146A U151G,≤ -4.2
22,C32U G83U C85A C105A A106U C131G G143C,≤ -4.2
23,U33C C87G,≤ -4.2
24,C35G U53G U134G,≤ -4.2

row,Variant,polymerase ribozyme fitness (log ratio)
1,C35A G65U G83A G140U,≤ -4.2
2,C35U C63G G68A U102G A122G,≤ -4.2
3,G34C G58A U77A U82G G86A C105A U127A G141C,≤ -4.2
4,G34U A52G C95G G133A U145A A150C,≤ -4.2
5,C35U G74A G140C,≤ -4.2
6,C35A C76U G81A C96U C103A,≤ -4.2
7,C35G C63U A91G C93A A97U C108U C123G G124C,≤ -4.2
8,C35G A98U,≤ -4.2
9,C36G U55G A73U C108U C118A G133U,-4.17
10,C36G G84A,-4.19
11,G34A C43A G92U C118U,≤ -4.2
12,U33G C43U A60U G88A U109G U135G G143A,-4.09
13,C35A C43U C87A G128A,≤ -4.2
14,G34A C93G G112C,≤ -4.2
15,G34A A37C C43U C125G U130A C149A,≤ -4.2
16,U33A G74C C87U,≤ -4.2
17,C32G U45A G50C C57A U101A A110U U148C,≤ -4.2
18,C35A C85A C93A A98U G100U C108G C114A,≤ -4.2
19,U33G C35G C54G A142C,≤ -4.2
20,U33C A40C U55A A110G,≤ -4.2
21,C35U A41G C93U A98G A120C C129G A142C,≤ -4.2
22,G34U C95U A107G A110G,-3.86
23,G34C U61G A64G C93U C95G G112U G141A,≤ -4.2
24,G34U C54U A66C A91U A121U,-4.11

row,Variant,polymerase ribozyme fitness (log ratio)
1,G34A C57A G58A G65C G68A C79G A106G C129G,≤ -4.2
2,C36G C95A G133U,≤ -4.2
3,U33C G50C U53A U55A C57U G71C,≤ -4.2
4,U33G G58C G65A A138C,≤ -4.2
5,C35A G86U C105U U109G,≤ -4.2
6,G34U A47U G59C A60G C75G G80A,≤ -4.2
7,U33G G42A U77C G84C C85U G117U,≤ -4.2
8,U33A G46A G59A C103A A115G,-4.12
9,C35G C54U A60U C85A,≤ -4.2
10,C36A U55A A64U C96A C118G,≤ -4.2
11,U33C C69U,-0.0558
12,U33G C72G G80A C85A U151G,≤ -4.2
13,G34U C63U C76U A89U C108A A137U,≤ -4.2
14,G34U A39U C43A C85U G117A,-3.98
15,G34A G58A U90A G94A U109G,≤ -4.2
16,C32U G59C C76A,≤ -4.2
17,C36U A40U G68U A106C G140U,≤ -4.2
18,C36A C87A C105G,≤ -4.2
19,C36A U56A C57A A122G U127C,≤ -4.2
20,C35U U44A U77A G84A C96U A142C,≤ -4.2
21,C35U C51U A52C C54G C118G,≤ -4.2
22,U33G U55G U109G G136U,≤ -4.2
23,C35G C85G A122U U134C,≤ -4.2
24,C35A A98G U101C,≤ -4.2

row,Variant,polymerase ribozyme fitness (log ratio)
1,U33A G58A G86A C116G U127G,≤ -4.2
2,G34U G88A C93U C103U G133C,≤ -4.2
3,C36A G46C U90C C95U,≤ -4.2
4,C35A A64C A98U C99U G152U,≤ -4.2
5,C32U C54A G59A A91G C93A C96U A113G U135G A147C,≤ -4.2
6,G34C C93G A98G,≤ -4.2
7,C35G G62A U101G,≤ -4.2
8,U33C C57U G80U G83U C87U G128U,≤ -4.2
9,C36G G70U C76U G84U C99U G141U,≤ -4.2
10,C32U U45A C96A A120U,≤ -4.2
11,C35A G74C C103G U139G,≤ -4.2
12,C35G A49C,≤ -4.2
13,U33C A97G,-2.92
14,C35U U78G G88A G117A A137G,≤ -4.2
15,C32G U45G G46C G84U C87A A120G U135A U146C A150U,≤ -4.2
16,C35U U77G C87A U104G,≤ -4.2
17,U33A G50U G58C G141A A150G,≤ -4.2
18,G34A G42U G58C C72U G84U,≤ -4.2
19,U33G A49C A91C C93U C125U,≤ -4.2
20,U33C A49C U53A G84U G88C C93G U134A,≤ -4.2
21,C32U C38U C69A U78A C99G U101A U127C,≤ -4.2
22,U33A U44A G58C C93G A97G C125A,≤ -4.2
23,C35G U90A G143A,≤ -4.2
24,C35A G67U G94U,≤ -4.2

row,Variant,polymerase ribozyme fitness (log ratio)
1,U33G G50A G126A C132G U144G,≤ -4.2
2,G34C G50A A66G C93G U139A C149U,≤ -4.2
3,U33G G48U C72U U90G C99A A138C G141A,≤ -4.2
4,U33A G50C G81A C93G C96U A98G C103G G152U,≤ -4.2
5,C36A A49C C87G C96A U144A,≤ -4.2
6,U33G U44A A142G,≤ -4.2
7,U33A U102C A107U A110G U144C,≤ -4.2
8,C36G C87G A91C A98U C114U A119U A122G,≤ -4.2
9,U33A A41C G71C U82G A91U C131G,≤ -4.2
10,C35U C43G G48A U148G,≤ -4.2
11,C35G A91U G152U,≤ -4.2
12,U33G U90C A137U,≤ -4.2
13,C32U G59C A122U G143U,≤ -4.2
14,U33C A49C C57U U145A U151A,≤ -4.2
15,C35A C79U U90G G92C C95G C99A A115C U144G,≤ -4.2
16,U33G A66C C95U,≤ -4.2
17,C35U G46A A119G A121U,-1.45
18,C35G G84A C93G U101G,≤ -4.2
19,C35A A52C C79G C96U U127C C149A,≤ -4.2
20,G34A C95G C96U G100U,≤ -4.2
21,U33G U77G G86U U139A,≤ -4.2
22,C35G G68A A91U U144C,≤ -4.2
23,G34U G94C G143A,≤ -4.2
